Source: PubChem BioAssay AID720542 (National Center for Advancing Translational Sciences (NCATS), 2013)
In all, about 360,000 compounds went through this assay and about 740 (0.21%) were called active. The inconclusive results got no clear call from the source; some entries with a clear call stand among them for comparison. Calls come from the whole dose curve; as a rule, active = well fitted inhibition curve with a large enough effect; inconclusive = small, poorly fitted or top-dose-only effect; inactive = no such curve, though single readings can be large or run the other way. No potency is given beside an inconclusive call; the fits are too rough.

System: Plasmodium falciparum AMA1 (3D7) - RON2 peptide interaction
Test: qHTS for Inhibitors of AMA1-RON; Towards Development of Antimalarial Drug Lead: Primary Screen; note: nearly all actives have a fitted effect of over 45% in size;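 for activity change, negative = inhibition: 0% = vehicle wells and -100% = peptide control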
Conditions: AlphaScreen AMA1-biotinylated RON2 peptide binding; activity change, negative = inhibition: at 58.2 µM (top of the series) unless noted
In short: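 AMA1 (3D7) with his tag at 25 nM final met compounds first, then biotinylated RON2 peptide at 25 nM; detection used donor plus acceptor beads, 10 µg/mL apiece, read by AlphaScreen after 30 min at room temperature.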
Potency is the fitted concentration of half-maximal effect; tags give direction and shape of the fitted curve.

Row | Structure (SMILES) | Potency | activity change, negative = inhibition
1 | O=C1NN(c2ccccc2)C(=O)C2C3C=CC(C4CC34)C12 (stereo not drawn) | inconclusive [inhibitor, single point] | 
2 | Cc1ccc(SC(C)c2nc(-c3ccccc3)no2)cc1 (stereo not drawn) | inconclusive [inhibitor, single point] | 
3 | O=C(CNC(=O)C1CCCCC1)NC1=NCCS1 | inconclusive [inhibitor, partial curve] | 
4 | CN(C)c1ccc(C(=O)N2CCN(c3cc(C(F)(F)F)nc4ccccc34)CC2)cc1 | inconclusive [inhibitor, single point] | 
5 | CCCCCCCCNC(=O)/C(C#N)=C/c1ccccc1[N+](=O)[O-] | inconclusive [inhibitor, partial curve] | 
6 | N#C/C(=C\c1ccco1)c1nc2ccccc2s1 | inconclusive [inhibitor, full curve, poor fit] | 
7 | NNC(=O)c1ccc(-c2ccccc2F)cc1 |  | inactive: 51.5%
8 | Cc1c(C(=O)NCc2ccccc2CN2CCCC2)oc2c(F)cccc12 |  | inactive: -11%
9 | O=S(=O)(Nc1ccc(N2CCCCC2)cc1)c1ccccc1F | inconclusive [inhibitor, single point] | 
10 | CC(=O)c1cc2cccc(OC3(C)CCN(Cc4ccc5ccccc5c4)C3)c2o1 (stereo not drawn) | inconclusive [inhibitor, partial curve] | 
11 | Cc1cccc(N2CCN(C(=O)c3ccc4ccccc4c3)CC2C)c1 (stereo not drawn) | inconclusive [inhibitor, single point] | 
12 | CCOC(=O)c1ccc[n+](CC(=O)Nc2cc(C(F)(F)F)ccc2Cl)c1 |  | inactive: -7.58%
13 | Cc1cc(C)c(S(=O)(=O)NCc2cccnc2)c(C)c1 |  | inactive: -3.52%
14 | O=C(c1cc2cc(Cl)ccc2[nH]1)N1CCN(C(=O)c2ccco2)CC1 |  | inactive: -0.0396%
15 | O=C(c1cccc(S(=O)(=O)N2CCc3ccccc32)c1)N1CCN(c2ccccc2)CC1 | inconclusive [inhibitor, partial curve] | 
16 | C/C(=N\Nc1ccc([N+](=O)[O-])cc1[N+](=O)[O-])c1ccc(-n2nncc2C(C)(C)C)cc1 | inconclusive [inhibitor, full curve, poor fit] | 
17 | Cc1ccc(-c2nn(-c3ccccc3)cc2C=C2SC(=S)N(CCS(=O)(=O)O)C2=O)cc1 | active: 31.6 µM | 
18 | COCc1cc(CN2CCCC(C(=O)Nc3ccc(-c4ccco4)cc3)C2)ccc1OC (stereo not drawn) | inconclusive [inhibitor, single point] | 
19 | O=C(Cn1nnc(-c2cccc(C(F)(F)F)c2)n1)N1CCCCCC1 |  | inactive: 16%
20 | O=[N+]([O-])c1ccc(N2CCCCC2)nc1N1CCCCC1 | inconclusive [inhibitor, partial curve] | 
21 | Cc1csc(NC(=O)c2cc(-c3ccccc3)nc3ccccc23)n1 | inconclusive [inhibitor, partial curve] | 
22 | COc1cccc(CNC(=S)Nc2cc(OC)ccc2OC)c1 | inconclusive [inhibitor, full curve] | 
23 | COc1ccc(N2CCN(CCCNC(=O)CN3CCN(Cc4ccccc4C)C3=O)CC2)cc1 | inconclusive [inhibitor, single point] | 

Row | Structure (SMILES) | Potency | activity change, negative = inhibition
24 | O=C1C2CCCCC2C(=O)N1c1ccc(NC2CCCCC2)c([N+](=O)[O-])c1 (stereo not drawn) | inconclusive [inhibitor, partial curve] | 
25 | COc1ccc(C(C(=O)NC2CCCC2)N2CCc3ccccc32)cc1 (stereo not drawn) |  | inconclusive: -12.9% [inhibitor]
26 | CCOC(=O)c1[nH]c2ccc(Br)cc2c1NC(=O)CCN1CCCC(C)(C)C1 | inconclusive [inhibitor, partial curve] | 
27 | O=[N+]([O-])c1cc(C(F)(F)F)cc([N+](=O)[O-])c1NCCCNc1ccc([N+](=O)[O-])c2cccnc12 | inconclusive [inhibitor, partial curve] | 
28 | CN1C(=O)/C(=C\C(=O)c2cccs2)c2ccccc21 | inconclusive [inhibitor, single point] | 
29 | Cc1cc(C)nc(/N=C(\N)Nc2cccc([N+](=O)[O-])c2)n1 |  | inactive: 14%
30 | CCCCN1C(=O)C(CC(=O)NCc2ccco2)CC(C(=O)N(CC)CC)=C1C (stereo not drawn) |  | inactive: -6.29%
31 | COc1ccc(NC(=O)CSc2ccccn2)c([N+](=O)[O-])c1 |  | inactive: -10.8%
32 | COc1cccc(OCC(O)CN2CCC(CN3C(=O)c4cccc5cccc(c45)C3=O)CC2)c1 (stereo not drawn) | inconclusive [inhibitor, single point] | 
33 | O=[N+]([O-])c1ccc(N2CCN(C(=S)Nc3ccc(F)cc3)CC2)cc1 |  | inactive: 2%
34 | COc1cc(CNCc2cccc3ccccc23)cc(OC)c1 | inconclusive [inhibitor, partial curve] | 
35 | CN(N=C(c1ccccc1)c1ccccc1)c1ccccc1 | inconclusive [inhibitor, partial curve] | 
36 | CCOC(=O)Cc1cc(=O)n2[nH]c(C)c(-c3ccccc3)c2n1 | inconclusive [inhibitor, partial curve] | 
37 | O=C(CCN1CCc2ccccc21)c1ccc2c(c1)OCCO2 | inconclusive [inhibitor, partial curve] | 
38 | COc1ccc(CN(C)C(C)C(=O)Nc2ccc([N+](=O)[O-])cc2Cl)cc1OC (stereo not drawn) | inconclusive [inhibitor, partial curve, poor fit] | 
39 | CCOC(=O)Cn1c2ccc(OC)cc2c2nc3ccccc3nc21 | inconclusive [inhibitor, single point] | 
40 | O=C(Nc1ccc(S(=O)(=O)Nc2ncccn2)cc1)c1ccc2ncsc2c1 | inconclusive [inhibitor, single point] | 
41 | COc1ccc(-c2sc3cc(OC)c(OC)cc3c2C#CCO)cc1 | inconclusive [inhibitor, partial curve] | 
42 | CC(=O)c1ccc(N2CCN(CC(O)COC(c3ccccc3)c3ccccc3C)CC2)cc1 (stereo not drawn) | inconclusive [inhibitor, partial curve] | 
43 | CCN(CC)c1ccc(/C=N/OCC(=O)Nc2cccc(C)c2)cc1 | inconclusive [inhibitor, full curve, poor fit] | 
44 | O=C1/C(=C/c2ccco2)Oc2c1ccc(O)c2CN1CCCCC1 | inconclusive [inhibitor, partial curve] | 
45 | O=C1NC(=O)N(CCc2ccc(F)cc2)C(=O)/C1=C/c1cccs1 |  | inactive: 3.2%
46 | O=Cc1ccc(Sc2nnc(-c3ccccc3)o2)c([N+](=O)[O-])c1 | inconclusive [inhibitor, single point] | 

Row | Structure (SMILES) | Potency | activity change, negative = inhibition
47 | O=C(CN1CCCC1)N1c2ccccc2Sc2ccc(C(F)(F)F)cc21 |  | inactive: -5.55%
48 | COc1nc(NCc2cccnc2)nc(NC2CCCCC2)n1 |  | inactive: -2.07%
49 | Cc1cc(C)nc(SCC(=O)OCN2C(=O)c3ccccc3C2=O)n1 |  | inactive: -4.91%
50 | CCOc1ccc(-c2nnc(N3CCCCC3)c3ccccc23)cc1 | inconclusive [inhibitor, partial curve, poor fit] | 
51 | Cc1ccc(/C=C/C(=O)c2ccccc2O)cc1 | inconclusive [inhibitor, single point] | 
52 | CN(C)c1ccc(-c2ccnc3c2CC(C)(C(=O)NCc2ccco2)O3)cc1 (stereo not drawn) | inconclusive [inhibitor, partial curve] | 
53 | Cc1cc(/C=C(\C#N)C(=O)Nc2ccccc2)c(C)n1-c1ccc(C(=O)O)cc1 |  | inactive: -2.09%
54 | CCOC(=O)C1CCN(c2cc3c(cc2NC(=O)c2ccccc2F)n(C)c(=O)n3C)CC1 |  | inactive: -0.414%
55 | CCN(CC)c1ccc(NC(=O)c2ccc(Br)o2)c(C)c1 | inconclusive [inhibitor, single point] | 
56 | CN1CCCN(c2cc(-c3ccc4ccccc4c3)nc3ccnn23)CC1 | inconclusive [inhibitor, single point] | 
57 | O=S(=O)(NCC(c1cccnc1)N1CCN(c2ccc(F)cc2)CC1)c1cccs1 (stereo not drawn) | inconclusive [inhibitor, partial curve] | 
58 | Cc1cccc(N2CCN(c3cccc(C)c3)C2c2cccnc2)c1 | inconclusive [inhibitor, full curve] | 
59 | O=C(NN1CCCCC1)c1ccccc1 |  | inactive: -10.1%
60 | Cc1sc(N=Nc2ccc(N(C)C)cc2)[n+]([O-])c1C | inconclusive [inhibitor, partial curve] | 
61 | CCn1cc(CN2CCN(CC(C)(C)C)C(CCO)C2)c2ccccc21 (stereo not drawn) | inconclusive [inhibitor, full curve] | 
62 | COc1cccc(-c2sc3ccccc3c2-c2ccc(OCCN3CCOCC3)cc2)c1 | inconclusive [inhibitor, partial curve] | 
63 | Cc1cccc(CN2CCc3c([nH]c4ccccc34)C2)c1 | inconclusive [inhibitor, partial curve] | 
64 | CC1CCN(C(=O)c2ccc(-c3ccccc3Cl)o2)CC1 | inconclusive [inhibitor, partial curve, poor fit] | 
65 | O=C1C=CC(O)C2(CO)OC12 (stereo not drawn) | inconclusive [inhibitor, partial curve] | 
66 | CC(Cc1ccccc1)=NNc1ccc([N+](=O)[O-])cc1[N+](=O)[O-] | inconclusive [inhibitor, partial curve, poor fit] | 
67 | Cc1ccccc1C(=O)N1[C@@H](C(C)C)COc2cc(Br)ccc2S1(=O)=O |  | inactive: -3.48%
68 | CC(/C=C/c1ccccc1)=N\Nc1ccccc1[N+](=O)[O-] | inconclusive [inhibitor, full curve] | 
